Results reported in the supplement of paper PMC3334620.
Over roughly 33,000 sequences, “E-score (-0.5 to 0.5)” has its median near -0.043; the highest 2% begin near 0.37. This is one part of the list.

Target: T1, Upc2 (UniProt Q12151)
T1 sequence: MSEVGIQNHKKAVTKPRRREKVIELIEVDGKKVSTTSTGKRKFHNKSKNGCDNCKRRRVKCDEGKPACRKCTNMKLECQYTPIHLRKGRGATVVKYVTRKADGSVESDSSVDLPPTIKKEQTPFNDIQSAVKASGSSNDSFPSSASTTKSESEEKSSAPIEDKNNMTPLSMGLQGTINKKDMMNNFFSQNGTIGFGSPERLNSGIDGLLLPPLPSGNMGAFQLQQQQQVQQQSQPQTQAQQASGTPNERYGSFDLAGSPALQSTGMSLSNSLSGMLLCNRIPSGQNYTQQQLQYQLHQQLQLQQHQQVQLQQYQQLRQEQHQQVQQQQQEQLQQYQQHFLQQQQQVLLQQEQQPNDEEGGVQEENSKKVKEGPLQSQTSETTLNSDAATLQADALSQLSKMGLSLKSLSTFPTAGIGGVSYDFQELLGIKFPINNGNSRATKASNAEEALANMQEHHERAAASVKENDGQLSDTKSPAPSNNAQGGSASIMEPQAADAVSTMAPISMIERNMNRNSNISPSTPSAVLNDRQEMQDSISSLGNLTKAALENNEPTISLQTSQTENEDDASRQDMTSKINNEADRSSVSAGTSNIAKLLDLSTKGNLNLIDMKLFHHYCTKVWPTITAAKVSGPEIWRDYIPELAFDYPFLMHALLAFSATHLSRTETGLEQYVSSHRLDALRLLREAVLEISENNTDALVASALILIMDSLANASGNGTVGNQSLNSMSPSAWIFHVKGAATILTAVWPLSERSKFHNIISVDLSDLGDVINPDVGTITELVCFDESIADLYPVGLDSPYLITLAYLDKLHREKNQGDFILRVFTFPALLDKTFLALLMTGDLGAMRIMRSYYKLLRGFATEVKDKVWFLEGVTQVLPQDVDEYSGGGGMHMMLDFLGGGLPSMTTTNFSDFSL
Assay: PBM E-score (8-mer binding enrichment) (E-score (-0.5 to 0.5)); higher = stronger / more preferred TF binding; most listed sequences are background and not binding sites
Conditions: protein concentration: 200 nM; construct: GST-full length
Procedure, shortened: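 E-scores (a modified Wilcoxon-Mann-Whitney statistic) were assigned by the Universal PBM Analysis Suite to every ungapped eight-base word pooled with its reverse complement. The input came from universal all-10-mer Agilent arrays made double-stranded by primer extension and probed with GST-tagged yeast transcription factors at about 100-200 nM. Fluorescent anti-GST detected bound protein, and masliner normalised the scans.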

Sequence	PBM E-score
GACGCACA	-0.0642
CTATGATC	-0.196
ACACCTCA	-0.172
ACCGGCTC	-0.112
ACTCTCGG	-0.0515
TCCGAAAA	-0.112
GAATCGGC	-0.0702
CAAAGACC	-0.0909
CACCCATA	-0.082
GATGGACA	-0.12
CCAGGTTA	-0.0415
GTTCAAAA	0.103
ACTAATCT	-0.0819
CATCCGCC	-0.24
AGGCTGGA	-0.104
ACACGATC	0.123
CCGTCATC	-0.138
ATGATTCA	-0.0951
AGATTAGA	-0.141
AAGTTCGT	0.285
GAGCTGCA	0.0412
ATGACCTA	0.0652
CGCGCCCC	-0.21
GAATACCC	-0.0182
CTTTATAC	0.303

Sequence	PBM E-score
CGCCAGAC	0.0501
ACAAGTAA	-0.0231
CAGACTCC	-0.141
AGACGAGC	0.206
GCCTCCAA	-0.227
GCCGGAGA	0.0079
CTGCGCTA	-0.00207
CCATGACG	0.0362
ACCGCTTG	-0.0281
CAACGGGA	-0.0408
CGACATCC	0.139
AGATTTCC	-0.0644
ACGTTCTA	0.111
AAGGCAAA	-0.0665
CTGGTCTA	-0.14
GCCGACTA	0.0688
AGTAGAAT	-0.133
TCGCGAAA	0.259
TACGAGAA	0.447
CCGCATCG	0.00181
TGAAATAA	-0.065
CTAAAATC	-0.126
GCTTTTAA	-0.0112
AACAGGAG	-0.196
CGCGTGAC	0.0176

Sequence	PBM E-score
GTGGTACA	-0.0906
CGAATAAG	0.238
CAACACGA	0.079
CAAGTCCA	-0.243
AACGCAAG	-0.115
CGGCCCGA	-0.0827
CAACCCCC	-0.308
GCCTACGA	0.249
ACCACGCC	-0.0536
TCGACCGA	-0.0426
GTATCGTA	0.423
CTTATAGA	0.107
TAAGTCAA	-0.0287
GACAATCC	-0.137
AAGCAAGA	-0.189
ACCATTGA	0.0696
AATCAGTC	-0.0216
CAGACCGC	-0.0953
ACTATCAG	-0.196
CACATTCA	-0.183
CCAAAAAC	0.0374
AGATCTCG	0.235
CAATTGGA	-0.255
ATGGTTTC	0.0347
ACCGGGCG	-0.0214

Sequence	PBM E-score
ATGCTAGC	-0.0375
AGTACTGA	-0.104
ATTCACTG	-0.23
AGCGTGCA	-0.0197
CTAATGGC	-0.133
CGGTGGGA	-0.0339
CCCACAAC	-0.0274
ATAGGCCA	0.123
AAAACTCT	-0.131
CACTCGCA	0.0657
AGACGTCC	-0.155
ATCTGAAA	-0.00539
CCCTGTAG	-0.234
CACCGGGG	-0.211
GATACTGC	-0.123
ACGAAACG	0.403
CACTCAAC	0.0712
GGTGGATA	-0.171
TAGATAAA	0.12
CGCTCGAA	0.0556
GACAAGTA	-0.0872
ACAAACCG	0.0738
AAACCACA	-0.118
AGAGCTTC	-0.19
AGGTCCTG	-0.0608

Sequence	PBM E-score
CCGTTTTA	0.118
CCAATTGG	0.0685
GACTAACC	-0.118
GCTGCTTA	0.0313
ACATAGTG	-0.128
CAAGGGAG	-0.14
AAGCCGGT	-0.131
GCGGGAGC	-0.183
ATCCCCAT	-0.179
ATGTATGC	0.0498
CCGTACGC	0.308
ATCTAATA	0.202
CCCCATCA	-0.236
CAGCTATC	-0.198
ACTAGACA	-0.171
CGTAGATC	0.182
TATTGTGA	0.0151
AGCTTCGC	0.0496
CGTCCTAG	-0.202
AAAGACTA	0.0661
ATGCAGCG	-0.136
AAAACGAC	0.375
AGAATAGG	0.14
AGAGGATA	-0.0298
ATGATCCG	-0.0506

Sequence	PBM E-score
AGTGGTAC	0.18
CCTGCCAG	-0.285
ACGTTCCG	0.169
GTTCCGGA	-0.021
AATCCTAT	-0.0872
CCAGGTTC	-0.287
CCCAATCC	-0.194
CCATCAGC	-0.138
GGAGACAA	-0.0252
CTTTCCTC	-0.179
GCGACCCA	-0.118
CCCCCCGC	-0.101
GGCAGGCC	-0.295
GCTGTGCA	-0.0365
CAAAGGTG	-0.244
GGCCAGCA	-0.302
ACGCGAGC	0.262
AGCTGTTG	-0.208
TCGAGTAA	0.0386
AGGCGCCT	0.0931
ATGAGAAG	-0.105
ACGGGGAT	0.151
AACGAATA	0.381
CACCCTCG	0.0904
GCAGTAGC	-0.174

Sequence	PBM E-score
TTGGAAAA	-0.017
AGGCAATA	-0.239
CTTGGGTC	-0.286
GAGGTCCA	-0.289
CAAACTGG	-0.178
CTAGGGAC	-0.19
CAGCCATA	0.135
CACAGAAC	0.127
GTGTCTCA	-0.12
AAGTCTGA	-0.255
CGAGGCCG	0.148
CCACATGG	-0.229
CACGTGTA	0.22
GACATCTA	0.0629
AGGAGAAG	-0.146
CTTGTCAA	-0.133
AATAATAT	0.0635
AGCCATTC	-0.0765
AGTACGAC	0.409
CCATAGGA	-0.163
TCCAGGAA	-0.0505
AAATTCAG	0.172
